Assay results published in the supplement of paper PMC12632987.
In all, about 2,300 sequences were measured (“median log2 fold change of GCK-ALFA target abundance (FLAG IP / Myc IP barcode read proportion)”: median about 0.095, lowest 2% from about -0.47 on). The list shows a part of the results.

B1: LC3A_28_1105 (protein)
chain: SEVDKENEAAIAEAKAAAAAGEPAVITLTVKATDTQEDIEKKLETLEEIAEILKDLPGSAIIVDLDGKIPQEAIDKIADRGEEIEEKYPNVTVIIALDEE
B2: LC3A_3_1778 (protein)
chain: ADELIEELLEALREAGKSEETIEAAREVAERLRERGFDEALETFVREMRRLLDVPDDILLDMLEEVLELLETEDLSEEEVIERIEELARLARAEAEIEEL
B3: LC3A_28_648 (protein)
chain: MTIEEQIEEALRKAREAREKGEPAVITLTVDGKATEEDIDRIIETMEEIARILDSIPGSAIIIDVTGGVKQEYIDRLAEKAEEIEKKYPNVTVIIALDED
B4: LC3A_free_0_2113 (protein)
chain: MVTVVEVVAISKEPVSEEKVAKLEAFAKALAAELSEKYGAETEVTVSTVDGRTVLTITLRKEGMSIDEGLEIADEVSDRLEAKFKELGVEVTIFESVYEE
B5: LC3A_28_991 (protein)
chain: SELKARADAVLKEVKEAAAKGEAKVFVIKVPSTATDEDIDYVVEAIKEMAEILKDVPGAAIIVDLESGVKQEHIDKIADAMDEAEEKNPNLAAIIALDED
B6: LC3A_3_1407 (protein)
chain: FEEIREETLELLREYGASEEVLEAAEEVLDALEEKGYEKAAETLLEELKELEDLSDELLLALLEDVLEFVTTEDASEEEVVEFIKEEATIAKNENEIEEL
B7: LC3A_45_1953 (protein)
chain: MYVAEVSVLVPEEEFEKAVAVLRETSARIREERGLEVEIDEEALKKAREEAKKEGEALVTVTVKSEDKDEALDAAVEIQDALEKAMSPKVASIISIKEEP
B8: LC3A_45_1951 (protein)
chain: MYRATVDVLVPREDFEAALAVLREKAKELSEKKGVKVEIDEEAVAAAREEAEREGEGLITVDVYHEDKQVALDAAVEIADRLEAELSPRVAVIISVEEVP
B9: LC3A_28_1149 (protein)
chain: SAMVEAAKAQIEADAEKDKDEKEVYLNVTLKKGMTVEEAAEVMDHLEEVVEKLKDKEKIYVVVDFEEPVSQEVLDLVLERADEIEEKFPNVSVIVALHED
B10: LC3A_3_1500 (protein)
chain: LEEAVERLLEALREAGVSEADIAEARELLEKAREYLTEESIEAITETVRRLAHLPPRLVAAAVLTLLETILEKKLNDEEVKEKAELLAETAESFAESDER
B11: LC3A_28_1262 (protein)
chain: NELEENLKKALEEAKKAVERGEEALITIKVPANVTEEEVKKIIETLEEIAELTKSLPKVTVIIDIERGVKQEHIDKLLDKAEELEKKYPNLTIIFALEEE
B12: LC3A_28_1096 (protein)
chain: SPLHEQLEAALAAVREAAAAGEPVTVTITVTDEATEEDLEYLEAALEEMAEIAAGLPSLSVIINLTGEKQQEFATRIGAFADELEARYPNLTVIIALDED
B13: LC3A_127_181 (protein)
chain: EKKEEVLKLAEKIVELARKMSDPDTSLEERKELAKEIIKLFKEIAKLEPEVKEDAEEAIELAETVLARYEAGEELDDVLEMLISGIEILAILIILKIEEK
B14: LC3A_3_1358 (protein)
chain: MEELVEETLKYLREAGKSEETIEAVRKAAEALIEKGYEEALKTFLELMKELKDLPDELLLAFAEDVLKAVTEEDLSEEELIEFIKEEARIARNEAEIIEL
B15: LC3A_free_26_2146 (protein)
chain: SDYIDLADIDEAIDNVEKALKLLKELGNKNEKLIKLLEEALKNLKKETLESLEKALKNLEEALKLVKEDKSIPEEAKKKLIELLTKAIENVKKNIEIMKS
B16: LC3A_28_1201 (protein)
chain: SRTLKSLEEALKKAEEALKKGEEAVITVTVDGDITEEELERVLEGLERIAEIAAKSKKISIIIDLVGGVPEEFQNRIIKKAEELEKKYPNVNIIIALEEE
B17: LC3A_132_279 (protein)
chain: EEKKKKEAIEKVKKLAKEAEKNIDNEEKVEKLIKELEKYLEKVEKEESPEVQAAVFETAAEEYEKLAKLAEAAGKEEIALELDSKAIEYASRSLRAKELI
B18: LC3A_3_1633 (protein)
chain: MEEKVEERLKKLKEAGASEETLKAFRETAEKLIERGYYKALETLIEETEKLLDLPDELLLDFFKEVLEYLETNDDDEETVIEKIKEIARTTRNEGEIIEL
B19: LC3A_3_1797 (protein)
chain: SEEKLEKLLKELKEAGKSEETIEAARKTLEALIEKGYEEAFETFVEELRELKDIPDEILLEMLKEVLELIENEDLSEEELTEEIKELARLAKLESEIEEL
B20: LC3A_28_970 (protein)
chain: MDIDEELEKALEKAREAREKGEPTVITIKVPGTTDEEDTEKVIETLEEIAEILKDIPGAAIIIDIDGDVDEELITKLMNKAEEIEKKYPNITVIFALDEK
B21: LC3A_13_337 (protein)
chain: TVKLEVETAEELREKGTAALEAHPGETIEITATVKDFEEAEKIAEEVGKLIDLAAEKGNSLVITIKGKRDEVLYASLLIGSEYYEKINEVDVTINEEILP
B22: LC3A_free_8_2496 (protein)
chain: SRQETVNEILKKIDEAEKRHVELAKKLGLSELDILDLELEYGSIKSSIISNSDKPMEEIIKTIKEDMERLIKLAAELSPELAEKAKEDLKEILELLEKKK
B23: LC3A_free_46_2310 (protein)
chain: VKAEISIDLLHDDEEVLKAAVEEIVKSIKEIAEKYGLEVEIKVSFSKDPDGSYFAHIDIILKGETEETVKKAVNEIIDEIDKIAEKYGVSYIISVEIEKE
B24: LC3A_free_8_2544 (protein)
chain: SLQELIQEASEAVDKAEEEVEKKAKELGLDPLDINYLLLLLGEAAIEIQEAATDNFEEEFNEALKTLKEAEKEAKKIHPEIAAIVAKLVAKLEEIKKKAE
B25: LC3A_free_39_2275 (protein)
chain: SAAERAAALARAEALAASLSPEGAALLRRIMAEFADDPEAIRRITEALERAKAEGADMLEILKRALAVVEEGRAAGLSREEIAERVLEEIEDLINLIPLD
B26: LC3A_59_2018 (protein)
chain: SEELEALRERLREAVDDIDAFVAIVREGLERFRDDPERVRALLRAAMDVIVEELGMDPEEAEKTLAEMLAIWETEPDKEEAIARVTELVRDTLLLTPIEE
B27: LC3A_free_8_2490 (protein)
chain: KSQELANKGSQLLDEMEEEIEKEAKKLGASELDILDLSLLIGSTIAEAYSLSDKSPEEIIEKIKEGLKELIEEAKKISEELAKKVEELSKEILKELEELK
B28: LC3A_28_947 (protein)
chain: MSTEEEVEEQLKKAKEAAKKKEPVVITLTVTGEDSQEEVQLVIEGMKEIAELLKDIKGSAIIVDVEAGVPQEHVDLIADEGEEIEKKYPNINVIIALDED
B29: LC3A_127_171 (protein)
chain: ELEELLEEALEVAEELSELLEEEDYDFEEIEELTRELLELAKKILELDPRAEDALETAEEMLELLEEMKEADEAEQKELKEHLLMLTEGLIIELLGLQLK

These binders were tested against MAP1LC3A, Q9H492 (assay: median log2 fold change of GCK-ALFA target abundance (FLAG IP / Myc IP barcode read proportion) (log2 ratio); each designed protein is fused to an ALFA-tag nanobody in HEK293 cells to bring the named protein to FLAG-tagged glucokinase (GCK); Myc marks an untargeted standard; higher = target protein stabilised (more abundant)). Details: target protein: 3xFLAG-MCP-GCK-ALFA reporter; HEK293 landing pad (RPLP).
Summary of the method: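 Sequencing of reverse-transcribed, amplified circular RNA barcodes from anti-FLAG and anti-Myc immunoprecipitates provided the readout for an ALFA-nanobody-fused binder library recombined into HEK293 landing-pad cells. Those cells were induced with 2 μg mL^−1 doxycycline, transfected with a plasmid expressing a FLAG-tagged target and a Myc-tagged standard, and lysed after 48 h. Target abundance is the per-binder median log2 ratio of FLAG to Myc barcode read proportions. Only barcodes at a proportion of ≥10^−7 in both replicates and binders with ≥3 barcodes per replicate were kept, with a 10^−6 pseudocount added before the two replicates were pooled.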

Row | Binder | median log2 fold change
1 | B1 | 0.00201
2 | B2 | -0.0575
3 | B3 | 0.104
4 | B4 | -0.105
5 | B5 | -0.141
6 | B6 | -0.422
7 | B7 | -0.1
8 | B8 | -0.428
9 | B9 | -0.188
10 | B10 | 0.0772
11 | B11 | 0.00327
12 | B12 | 0.0299
13 | B13 | 0.0177
14 | B14 | 0.308
15 | B15 | 0.259
16 | B16 | -0.246
17 | B17 | 0.341
18 | B18 | 0.174
19 | B19 | -0.12
20 | B20 | 0.154
21 | B21 | 0.13
22 | B22 | 0.426
23 | B23 | 0.181
24 | B24 | -0.0689
25 | B25 | -0.12
26 | B26 | -0.587
27 | B27 | 0.119
28 | B28 | 0.0563
29 | B29 | -0.77
